# From article PMC4336329 (PLoS ONE, 2015)
# Among all 310,000 compounds or so, about 14,000 (4.5%) showed an effect of 50% or more. Effects have a minus sign here. This is one part of the list.
# Molecular target: human ether-à-go-go-related gene (hERG) potassium channel (human, UniProt Q12809)
# Assay: primary screen, population patch clamp on CHO cells stably expressing hERG
# 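Note: peak tail current of the secondary pulse compared with the same well before compound.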
# human ether-à-go-go-related gene (hERG) potassium channel, sequence (Q12809 whole entry, looked up): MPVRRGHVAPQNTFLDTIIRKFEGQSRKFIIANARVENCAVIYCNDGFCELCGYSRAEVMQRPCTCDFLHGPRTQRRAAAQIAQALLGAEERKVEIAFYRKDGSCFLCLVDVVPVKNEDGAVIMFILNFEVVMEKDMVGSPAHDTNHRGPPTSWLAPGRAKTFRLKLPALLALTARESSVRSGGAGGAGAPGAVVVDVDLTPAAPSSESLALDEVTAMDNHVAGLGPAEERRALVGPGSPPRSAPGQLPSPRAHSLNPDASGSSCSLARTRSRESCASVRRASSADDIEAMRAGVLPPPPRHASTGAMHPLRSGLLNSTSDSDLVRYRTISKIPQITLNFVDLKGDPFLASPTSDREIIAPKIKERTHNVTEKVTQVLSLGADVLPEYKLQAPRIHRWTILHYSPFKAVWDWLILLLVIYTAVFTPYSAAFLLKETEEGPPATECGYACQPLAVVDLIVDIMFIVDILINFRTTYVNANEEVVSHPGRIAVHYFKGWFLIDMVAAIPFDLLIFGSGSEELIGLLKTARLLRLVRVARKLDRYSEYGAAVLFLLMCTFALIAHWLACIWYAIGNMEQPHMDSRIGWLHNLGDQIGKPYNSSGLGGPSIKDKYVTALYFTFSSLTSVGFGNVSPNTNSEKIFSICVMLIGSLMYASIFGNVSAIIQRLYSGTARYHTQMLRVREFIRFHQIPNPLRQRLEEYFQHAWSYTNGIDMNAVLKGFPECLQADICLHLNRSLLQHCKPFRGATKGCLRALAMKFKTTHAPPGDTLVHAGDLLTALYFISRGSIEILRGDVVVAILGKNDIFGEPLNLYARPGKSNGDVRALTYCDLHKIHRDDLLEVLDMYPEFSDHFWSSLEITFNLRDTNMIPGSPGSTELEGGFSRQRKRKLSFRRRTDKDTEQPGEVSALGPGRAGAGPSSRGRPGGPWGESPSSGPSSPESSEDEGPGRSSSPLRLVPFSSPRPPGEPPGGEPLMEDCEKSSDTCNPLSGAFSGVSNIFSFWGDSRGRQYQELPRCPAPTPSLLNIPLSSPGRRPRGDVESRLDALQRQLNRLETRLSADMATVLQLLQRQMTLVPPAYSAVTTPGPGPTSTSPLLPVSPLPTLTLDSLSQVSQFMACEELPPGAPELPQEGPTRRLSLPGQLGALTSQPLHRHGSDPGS
row,SMILES,"hERG current change (%, negative = inhibition) at 10uM [%]"
1,O=c1cc(Cl)[nH]c(=O)n1CCNc1ncc(C(F)(F)F)cc1Cl,-2.67
2,CC(C)=CCN1CCN(Cc2c[nH]c3ccccc23)CC1CCO (stereo not shown),-1.98
3,Fc1ccc(/C=N/Nc2nccnc2Cl)cc1,9.05
4,CC1=C(C(=O)OCCOc2ccccc2)C(c2ccc(C)o2)C2=C(CC(C)(C)CC2=O)N1 (stereo not shown),-0.0235
5,Cc1ccc2[nH]c(=O)c(CN(CCCN3CCOCC3)C(=O)Nc3ccc(Cl)cc3)cc2c1,-71.7
6,COc1ccc(NC(=O)CSc2nc(=O)n(CCN3CCOCC3)c3c2CCCC3)c(OC)c1,-34.6
7,COc1ccc(-c2cc(C(=O)N3CC4(C)CC3CC(C)(C)C4)no2)cc1OC (stereo not shown),-20.1
8,CCOc1ccc(NC(=O)CC(=O)Nc2ccc(OCC)cc2)cc1,18.4
9,Cc1ccc(-c2nc3ccccc3s2)cc1NC(=S)NC(=O)/C=C/c1ccco1,-3.62
10,CCOc1ccc(-c2cn3ccccc3n2)cc1,12.3
11,COC(=O)c1cn(CCOc2ccccc2F)c2ccccc12,-3.48
12,Cc1ccc(NC(=O)c2cccs2)cc1,-11.7
13,COc1ccc([C@H]2CC(=O)C=C(c3ccc(Oc4ccccc4)cc3)C2)cc1OC,9.51
14,Cc1cccc(SCC(=O)Nc2ccc3c(c2)OCCO3)c1,-9.28
15,COc1ccc(C(=O)C2CCCN(C(=O)c3cc(C)on3)C2)cc1F (stereo not shown),-6.98
16,Cc1ccc(-n2c(/C=C/c3ccc4c(c3)OCO4)nc3ccccc3c2=O)cc1,-50.4
17,CC(C)S(=O)(=O)c1cnc(N2CCOCC2)nc1N,11.4
18,COc1ccccc1-c1coc2c(CN(C)C)c(O)ccc2c1=O,8.09
19,Cl.O=C(CN1CCN(Cc2ccccc2)CC1)N1CCCc2ccccc21.O=C(O)C(=O)O,-13.5
20,Fc1ccccc1/C=N/n1c(-c2cccnc2)n[nH]c1=S,18.5
21,Cc1cc(C)c(C#N)c(Oc2ccc(F)cc2)n1,-2.14
22,c1ccc(Oc2c3ccccc3nc3ccccc23)cc1,13.1

row,SMILES,"hERG current change (%, negative = inhibition) at 10uM [%]"
1,Cc1ccc(NC(=O)c2ccc3snnc3c2)cc1C,14.8
2,CCC(Sc1nc(-c2ccccc2)c(-c2ccccc2)[nH]1)C(=O)O (stereo not shown),53.2
3,CC1CCCC(NC(=O)Cn2cc(C(F)(F)F)cc(Cl)c2=O)C1C (stereo not shown),15.6
4,CC(=O)Nc1ccc(NS(=O)(=O)c2ccccc2)cc1,17.1
5,O=C(CSc1nnc(NCc2ccccc2)s1)c1ccco1,-24.3
6,COc1cccc(CC2(CO)CCN(Cc3cnc(N4CCOCC4)s3)CC2)c1,-54.7
7,CCN(c1ccccc1)S(=O)(=O)c1ccc(OC)c(N=N/C(C(=O)Nc2ccccc2)=C(/C)O)c1,-11.5
8,Cc1cccc([C@@H]2[C@@H]3C(=O)N(Cc4ccccc4)C(=O)[C@@H]3[C@]3(Cc4ccc(Cl)cc4)C(=O)N(c4ccccc4)C(=O)N23)c1,-25.3
9,O=C(CCS(=O)(=O)c1ccc(Cl)cc1)Nc1nnc(-c2cccs2)o1,-1.53
10,CCCCN(C(=O)CSc1nnnn1C)C1CCS(=O)(=O)C1 (stereo not shown),-28.1
11,S=C1NCN(Cc2cccnc2)CN1c1cccc2ccccc12,5.57
12,COc1ccc(C(=O)NCc2ccccc2)cc1Br,7.97
13,OCc1nc2c(ccc3ccccc32)[nH]1,5.35
14,CCc1nnc(NC(=O)CSc2nnc(COc3ccc(C#N)cc3)n2-c2ccccc2)s1,3.13
15,Cc1cccc(-c2nnc(SCC(=O)c3ccc(O)cc3O)n2C)c1,14.4
16,O=C(Nc1ncccn1)C1CCCCC1,17
17,Cc1ccc(NC(=O)CN(C)C(=O)CNC(=O)c2ccc3c(c2)OCO3)cc1,3.73
18,COC(=O)C1=C(c2ccccc2OCc2ccccc2)C[C@@H]2CC[C@H]1N2C(=O)NCc1cccc(C(F)(F)F)c1,1.18
19,Clc1ccc(SCCOCCN2CCCCCC2)cc1.O=C(O)C(=O)O,-73.3
20,CCOC(=O)C1CCCN(C(=O)c2cc3nc(-c4cccc(OC)c4)cc(C(F)(F)F)n3n2)C1 (stereo not shown),-25.3
21,COc1ccc(Br)cc1/C=N/NC(=O)c1ccc(COc2ccc3c(c2)CCC3)o1,21.9
